Experimental findings from PubChem BioAssay AID463173 (ICCB-Longwood Screening Facility, Harvard Medical School, 2010) are described below.

Out of some 52,000 compounds screened, about 1,700 (3.3%) were called active. Cut-off read from the data, not from the text of the source: active = survival mostly below about 52% (no sharp cut-off); inactive = mostly above about 56%. The list shows a part of the results.

The test system of the experiment is Wild type. In words: S. aureus survival, RN4220 and DeltatarO strains – OD600, teichoic acid synthesis inhibitors, primary screen (AID 463173). As to conditions: S. aureus RN4220 wild type/DeltatarO growth, OD600, 18 h, active compounds read low, screened at 18.75 µg/mL (by protocol).
Take `O=C1C2C3C=CC(C3)C2C(=O)N1CCN1CCCC1` (centres undefined): the survival was inactive: 102%.
For the compound `CCNC(=O)Cn1cc(C#N)c2ccccc21`, the survival was inactive: 98%.
In the case of `CCc1ccc(-n2nnc(-c3nc(-c4ccccc4)no3)c2C)cc1`, the survival is inactive: 78%.
Consider `COc1ccccc1Nc1c2c(nc3ccc(NC(=O)/C=C/c4cccc(OC)c4OC)cc13)CCCC2`, for which the survival was inactive: 100%.
Turning to `Cc1ccc(Nc2c3c(nc4nncn24)CCC3)cc1`, the survival is inactive: 83%.
Under `COc1cc(OC)c(NC(c2nnc(-c3ccccc3)o2)c2ccc(F)cc2Cl)cc1Cl` (centres undefined) stands inactive: 66%.
Under `COc1ccc2nc(N(Cc3cccnc3)C(=O)CCc3ccccc3)sc2c1` stands inactive: 83%.
Turning to `COc1ccccc1NC(=O)CSc1nnc(-c2cccc(Cl)c2)o1`, the survival was inactive: 77%.
In the case of `CCOc1ccccc1-c1nc(-c2ccc(-c3ccccc3)nc2OCC)no1`, the survival is active: -1%.
On to `CCn1cc(S(=O)(=O)c2cc(C)cc(C)c2)c(=O)c2cc(F)c(N3CCOCC3)cc21`, for which the survival is inactive: 71%.
With `Cc1cc(C)cc(-n2cnc3cc(C(=O)NCCc4ccccc4)ccc32)c1`, the survival was inactive: 73%.
With `COc1cc(NC(=O)Cn2c(SCc3ccc(F)cc3)nc3cccnc32)cc(OC)c1`, the survival was inactive: 128%.
`CCN(C(=O)Cn1c(C(=O)OC)cc2oc3ccccc3c21)c1cccc(C)c1`: the survival is active: 24%.
In the case of `Cc1ccc(CCNC(=O)CCc2cn(Cc3ccccc3C)c3ccccc23)cc1`, the survival was inactive: 97%.
Take `CCOC(=O)c1c(Oc2ccc(C(=O)OC)cc2)nnc(-c2ccccc2)c1-c1ccccc1`: the survival is inactive: 87%.
With `Cc1ccc(C)c(N(C)C(=O)c2cn(C)c(=O)c3ccccc23)c1`, the survival was inactive: 90%.
Take `O=C(CNC(=O)c1ccccc1Cl)OCc1cc(=O)n2ccsc2n1`: the survival is inactive: 74%.
For `O=C(c1cccc(Cl)c1)n1nc(-c2ccco2)nc1NCc1cccs1` the value was inactive: 83%; for `COc1cc(CN(C(=O)c2cc3ccccc3oc2=O)C2CCS(=O)(=O)C2)cc(OC)c1OC` (centres undefined), inactive: 84%; for `Cc1cccc(Cn2c(SCc3ccc(C(=O)N4CCCCCC4)cc3)nc3ccncc32)c1`, inactive: 132%.
For `Brc1csc(CN2CCc3nc(Nc4ccccc4)ncc3C2)c1` the value was inactive: 70%.
`Cc1cccc(NC(=O)c2cc(S(=O)(=O)N3CCCCC3)c[nH]2)c1C`: the survival was inactive: 89%.
Regarding `Cc1ccc(Cn2c(=O)n(CCCCC(=O)NCCc3ccc(Cl)cc3)c(=O)c3ccccc32)cc1`, the survival was inactive: 103%.
`CC1CCc2c(sc3nnn(Cc4ccc(F)cc4)c(=O)c23)C1` (centres undefined): the survival is active: 1%.
On to `COc1ccc(Cc2c(Cl)nc(SC)nc2NN)cc1`, for which the survival was inactive: 99%.
In the case of `O=C(NCc1ccccc1)c1cc(-c2cccc(Cl)c2)on1`, the survival was inactive: 88%.
Regarding `CC1=NN(CCC#N)C(c2ccccc2)C1` (centres undefined), the survival is inactive: 108%.
For `Cc1cc(C)cc(OCC(=O)NCC(c2ccc(Cl)cc2)N2CCCCC2)c1` (centres undefined) the value was inactive: 83%.
For the compound `COc1ccc(S(=O)(=O)N2CCN(c3ccc(F)cc3)CC2)cc1-c1noc(C)n1`, the survival is inactive: 84%.
`O=C1CC2CCC(CN1)N2CC(=O)N1c2ccccc2Sc2ccc(C(F)(F)F)cc21` (centres undefined): the survival is inactive: 110%.
Consider `COc1ccc(OC)c(N(CC(=O)NCc2ccccc2)S(=O)(=O)c2ccccc2)c1`, for which the survival was inactive: 79%.
For the compound `CCc1ccccc1NC(=O)Cn1nnc(C(=O)OC)c1C(=O)OC`, the survival was inactive: 83%.
Turning to `COc1ccc(N2CCOCC2)cc1`, the survival is inactive: 110%.
Take `CCN(CC)S(=O)(=O)c1ccc2c(c1)N(CC(=O)Nc1c(C)cccc1C)C(=O)CO2`: the survival was inactive: 87%.
In the case of `COC(=O)c1ccc(NC(=O)CC2C(=O)N(c3ccc(Cl)cc3)C(=O)N2Cc2cccs2)cc1` (centres undefined), the survival is inactive: 66%.
On to `CCc1ccc(NCc2cc3cc4c(cc3n(CC(=O)Nc3ccc(Cl)cc3)c2=O)OCO4)cc1`, for which the survival was inactive: 131%.
On to `COc1ccccc1CCNC(=O)c1ccc2c(c1)c(C)c(C)n2C`, for which the survival is inactive: 66%.
Regarding `COc1ccc(NC(=O)CSc2ncc(-c3ccc(Cl)cc3)[nH]2)cc1OC`, the survival is inactive: 99%.
For `Cc1cc(S(=O)(=O)Nc2cccc(C(=O)O)c2)c(C)c(S(=O)(=O)c2ccccc2)c1` the value was inactive: 74%; for `Cc1nnc(SCCCN2C(=O)c3ccccc3C2=O)o1`, inactive: 105%; for `COC(=O)c1cc(NC(=O)CCc2c(C)nc3c4c(C)cc(C)nc4nn3c2C)cc(C(=O)OC)c1`, inactive: 83%.
`CCOC(=O)c1sc(N2C(=O)c3oc4cc(C)c(C)cc4c(=O)c3C2c2cccc(O)c2)nc1C` (centres undefined): the survival is inactive: 73%.
As for `CN(C)C(=O)c1c(N)no[n+]1[O-]`, the survival was inactive: 101%.
`CCOC(=O)c1sc2ccccc2c1S(=O)(=O)Nc1ccc(N(C)C)cc1`: the survival is inactive: 131%.
With `S=c1[nH]nc(NNc2ccccc2)n1Nc1ccccc1`, the survival is inactive: 108%.
As to `CC1CCN(c2nc3c(S(=O)(=O)c4ccccc4)nnn3c3ccsc23)CC1`, the survival was inactive: 116%.
Under `CCOC(=O)Cn1cnc2sc(C)c(C)c2c1=O` stands inactive: 100%.
`CCc1ccccc1NC(=O)c1cc(S(=O)(=O)N(CC)c2ccccc2)ccc1F`: the survival is inactive: 75%.
In the case of `COc1ccccc1NC(=O)CCCOc1cc(=O)n(C)c2ccccc12`, the survival is inactive: 116%.
Regarding `COc1ccc(-c2nc(C)c(CCNC(=O)C(=O)Nc3cccc(F)c3)s2)cc1OC`, the survival is inactive: 51%.
Regarding `COc1ccc(CCNC(=O)c2nn(-c3ccc(C)cc3)c(=O)c3c2c2ccccc2n3C)cc1OC`, the survival was inactive: 76%.
For `O=C(CC1N=C2c3ccccc3N=C(SCC(=O)Nc3cccc(C(F)(F)F)c3)N2C1=O)NCc1cccs1` (centres undefined), the survival was inactive: 54%.
With `CCc1ccccc1NC(=O)Nc1nnc(N2CCCC2)s1`, the survival was inactive: 88%.
For `CCc1ccc(CN(Cc2ccco2)C(=O)c2ccccc2Cl)cc1` the value was inactive: 81%; for `CCOC(=O)CCn1nc(-c2ccc(C)cc2)c2ccccc2c1=O`, inactive: 75%.
Take `Cc1ccc(C)c(Cn2c(=O)n(Cc3ccccc3)c(=O)c3c(C)c(C)sc32)c1`: the survival is inactive: 90%.
Turning to `CCn1nc(C)c(Oc2ccccc2O)c1C`, the survival is inactive: 116%.
As for `COc1cc(NC(=O)Cn2c(=O)n(Cc3ccccc3OC)c(=O)c3cccnc32)cc(OC)c1`, the survival was inactive: 147%.
For `Cc1ccc(C(=O)COC(=O)c2cc(-c3ccccc3)nc3ccccc23)cc1C`, the survival was inactive: 91%.
